From the supplement of paper PMC11417369
Some of the results follow.

tested on: PfHDP1 homeodomain (GST-tagged); experiment: gcPBM binding intensity (ln(normalized median fluorescence intensity)); higher = stronger DNA binding
In short: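 The highest Masliner-normalised natural-log median intensity across replicate spots of either probe orientation is reported as binding intensity. GST-tagged P. falciparum DNA-binding domains expressed in E. coli were applied for 1 h to an Agilent 4 × 180k array of primer-extended double-stranded 36-bp intergenic genomic probes plus negative controls, and bound protein was detected with Alexa488 anti-GST antibody and scanned at 488 nm.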

Sequence	gcPBM binding intensity (ln)
TTTCTTTTCTTCTCTATTTTTTTTTCACGGCATTAT [TGCATGCA_negctrl_site484]	6.63
ACATTAAAAAATTGTTTGCACTATATAAAATATTAA [GTGCAC_site9728]	8.82
AATATAAGAAAAATAACACACACATAAACATATATA [CACACA_site8899]	7.06
ACATATAAAATATTCACACACAAGTTATAGTTCTCG [CACACA_site3626]	6.41
AATAAATTATATATCACACATATATATTTATATTTA [CACACA_site5964]	6.29
ATTTTGTTATTATATATATATATATATATATATATA [XGTACX_negctrl_site590]	9.34
AAATGTGAACTATAATAATTTCAACGTCTGATATAA [TGCATGCA_negctrl_site440]	5.94
TTTCTTTCGAATGCTTCACACATTACTCTTAAATAG [CACACA_site5265]	6.78
CAAAACCTAATATGTACACACATATACATCACACTT [CACACA_site7480]	6.64
AAATTTATAAAGAACACACACATATATATATATATA [CACACA_site48]	9.26
ATATATATATATATAGTGCACATTTATATAATTATT	10
ATATTTCTGTCAAGCACACATAATATTAATATATGT [CACACA_site318]	6.75
ATTTTAAATTAAATTACACACTACGAATAATATATT [CACACA_site4016]	6.51
TGTATAAAAATTTATACACACATTTTATATATTTCA [CACACA_site1015]	6.55
TAATCCATAAGAAGCACACACATATATATATATTTT [CACACA_site1399]	6.54
TATTAATTATTATGACATACATATCAGTTATTAAAA [CACACA_negctrl_site600]	6.22
ACAAATAAGTTTTATACACACATATAAGTAAATACA [CACACA_site4157]	6.4
GAGAGGAACATTATATGTACATATTAATTCTAAAAT [XGTACX_site5433]	6.47
ACAATATTTTTTTATAAACACACATATATATAAATA [CACACA_site9175]	6.87
TATAGTGATATATACACACACTTGTCTTGTAAAAAT [CACACA_site6594]	6.63
TATATATATATATATTGTACTTTATATGTTCTTATA [XGTACX_site7545]	9.13
AAATATTACATTTGTTAAATAATATGTTATACATAA [XGTACX_negctrl_site484]	5.89
TTTTATAAAGGAAAAGCATGCAGACTAAAAGATCAT [TGCATGCA_site150]	7.22

Sequence	gcPBM binding intensity (ln)
TAATGGAGAAAAAAAAAACACACGGTACATTCAAAG [CACACA_site3117]	6.68
AAGGGAAAATAATAAAAGAAAAAGAAAAAAAAAAAA [CACACA_negctrl_site1518]	5.82
AATGTGTATATATATACACACACATATATATATTTT [CACACA_site8596]	7.12
TCCTTTTTACTACTAGTGCATTATTTACAAGGTCCG [GTGCAC_site9441]	9.57
TAGTTTTTTATATATTGTACTTAGAATATATTATAT [XGTACX_site3662]	6.22
AGGATAATATACAAAAGTACATAAAACTAAAAAAAC [XGTACX_site605]	6.68
AAAGAAAGAAAGAATACACACACACCGATATATATA [CACACA_site9246]	6.95
AACATATATTTTGAAACACACACATATATAATATAC [CACACA_site8301]	6.81
GGACACCTTCAAAACACACATACAAATAAATAGAAA [CACACA_site3305]	6.67
ATATAAATATATATATGTACATAATATATTATGTTT [XGTACX_site2806]	6.47
AATTTAACCACTAAAAGTACACACATATATACATAT [XGTACX_site8352]	6.44
TAGTATTTATATGTTATATATATAAAATAATACAGT [XGTACX_negctrl_site571]	6.5
TATATAGAATTATATGCATGTTCAAAAAAATACAAC [TGCATGCA_site431]	6.64
ATATCTAATAAAAATACACACACATATGATTTGTGA [CACACA_site8558]	6.44
TTCTATTTTTTAAAAGTGCATATTATAAATATATAT	7.57
AATAGTTCTTGAACGTGTACATAAAATATAATTTAC [XGTACX_site11]	6.36
GAATAATCCAAACACACACACACACCCGAATAAATA [CACACA_site482]	6.9
GAAATCTAAATAGAAACACACATATATAAATAAATA [CACACA_site7762]	6.33
TTTTATATATAATTCACACAAAAAAGATACATAAGA [CACACA_site5332]	6.85
TATATAAAAATATGTTGTACGCATTTATAAATATAT [XGTACX_site3758]	6.64
ATTTTTTTTTTTTTTTTTTTTTTTTTTGAATTCACA [CACACA_negctrl_site982]	5.92
ATTTTGTTTTTTTTTGCACACCATAAGGAGTGTAGG [CACACA_site1414]	10.1
ATAAAAATATAATTGAGTACATATGAATAGTCCTAT [XGTACX_site6281]	6.24

Sequence	gcPBM binding intensity (ln)
TAAGCAAAAATAATTACACACAAATTTATAAAAAAT [CACACA_site3377]	6.19
ACAACACATATTCATCGTACATGTATTAGGAAGACA [XGTACX_site1859]	6.65
GGTGTATGTTAAAGGAGTACATATATATATATATAT [XGTACX_site7727]	9.6
TATTTTTATTTATAACGTACGAAAAATGTATATAAT [XGTACX_site703]	6.97
CATACACATTTCATATGTACATAGATTGAAGGGAAG [XGTACX_site116]	6.61
TGGAGGTCAGTTCACAGTACCCAGGAAATCTGCGGA [XGTACX_site2556]	5.68
TATAACATAGGACACACACACATACATACACAAAAA [CACACA_site5062]	7.06
ATGCATAATATACTCTTACACACCATTTCTATATAC [CACACA_site1461]	6.95
TCATATATTTTATACATACACACATATATATATTTT [CACACA_site3941]	6.96
ACGTTATACACAGTACGTACATAACTATCTAAATGT [XGTACX_site5068]	6.9
TGTGTATAAATATACACACACATATAAATATTTTAA [CACACA_site7005]	6.75
TATTTAAAAAATAATACACACATAATATAACAAAAT [CACACA_site3174]	7.13
ACATATAATATAAATTGTACATATAAATATATTATT [XGTACX_site4268]	6.35
AAAAAAAAAAAACACACACACACACCCACCCATACA [CACACA_site2859]	7.04
TTTACAACATCAAAATGTACGCATTATTATTATTAA [XGTACX_site3017]	6.11
AGAAATATATATATATATATATATATATATATATAT [TGCATGCA_negctrl_site375]	9.43
AGTAACAAAAGAAAAAAATATGCAAACATATATATA [XGTACX_negctrl_site468]	6.79
TTCATTTTTTGCTTTCAACACACATACAATATATAT [CACACA_site9369]	7
AAAAAAAAAAAAAAATATATATATATATACATACAT [CACACA_negctrl_site317]	6.44
TTTTTCTTTTTTTCTTTTTTTATAAAACTTAATTGT [CACACA_negctrl_site384]	6.28
TATTAATTATATTTATGTACATAATCATATTATTAT [XGTACX_site7938]	6.53
ACGTAATAAAATAGTTGTACAACTTTTTATAATATA [XGTACX_site4393]	7.05
TATATATATATTATATGTACGTATGTATGTATATAT [XGTACX_site6451]	8.33

Sequence	gcPBM binding intensity (ln)
TCATAAATATGAAAAAGTACAAAGGTAGATTTTGAA [XGTACX_site4535]	6.39
AAACGATTAATGTGTACACACATAGTTATAAACCTA [CACACA_site2110]	6.59
GGTATACACAAGTATACACACATATATATATATATA [CACACA_site9063]	9.3
ACAAAGTTATAATTCTTGCACTTTAAGGTTCATTTA	7.08
ATAAATATCTAGGGTTCACACATTATATATCTGTAT [CACACA_site5702]	6.2
CGTGAATATATGATATGTACTTATAAAAATTTGTGC [XGTACX_site5480]	6.45
TTTTCCTCTTAAAATATACACACTGATTTAAGAAAA [CACACA_site3301]	6.42
ATATTACACAGATATGCACACATTGTAGTTATTTAT [CACACA_site5454]	9.65
AAAAAGGAAATTTACACACACATATAACATACATTA [CACACA_site7534]	6.71
AATTATAATAAATAACGTACAAAAAATAAATTATTT [XGTACX_site3627]	6.39
ATAAAAATAAAATGGACACACATATATACATATTTG [CACACA_site3277]	6.28
TTTTTTTTTGATATTTGTACTTAAGTAAATATTATA [XGTACX_site3843]	6.23
ATAAGCGAATATATATCACACACAAAAAAATCAGAC [CACACA_site8657]	7.59
TATATATTCATGTGTACACACAAAAAAAAATAAAGT [CACACA_site2207]	7.6
TCCGTATAATTTTGCACACGAATATAAATTTGATAA [CACACA_site136]	10.9
ACATATCGGGTGCATTAACACACATTTATTTGAATA [CACACA_site8736]	9.3
ATTATATCACTGTGTTGTACTTCTTATATAAAAATA [XGTACX_site2333]	7.11
CGTTTATTAAACTTGACACACACACCCCCACATATA [CACACA_site8151]	7.43
AATCGATAACAATGTAGTACCAGAAAAATAAATATT [XGTACX_site8501]	6.65
TATATATATATATATGCATGCCATATGATATATATA [TGCATGCA_site109]	9.34
